Experimental data reported in article PMC4336329 (PLoS ONE, 2015).
Screen size: about 310,000 compounds; about 14,000 (4.5%) showed an effect of 50% or more. The effect is printed as a negative number. This is one part of the list.

target: human ether-à-go-go-related gene (hERG) potassium channel (human, UniProt Q12809); assay: primary screen, population patch clamp on CHO cells stably expressing hERG
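Note: peak tail current of the secondary pulse compared with the same well before compound.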

Sequence of human ether-à-go-go-related gene (hERG) potassium channel (Q12809 whole entry, looked up): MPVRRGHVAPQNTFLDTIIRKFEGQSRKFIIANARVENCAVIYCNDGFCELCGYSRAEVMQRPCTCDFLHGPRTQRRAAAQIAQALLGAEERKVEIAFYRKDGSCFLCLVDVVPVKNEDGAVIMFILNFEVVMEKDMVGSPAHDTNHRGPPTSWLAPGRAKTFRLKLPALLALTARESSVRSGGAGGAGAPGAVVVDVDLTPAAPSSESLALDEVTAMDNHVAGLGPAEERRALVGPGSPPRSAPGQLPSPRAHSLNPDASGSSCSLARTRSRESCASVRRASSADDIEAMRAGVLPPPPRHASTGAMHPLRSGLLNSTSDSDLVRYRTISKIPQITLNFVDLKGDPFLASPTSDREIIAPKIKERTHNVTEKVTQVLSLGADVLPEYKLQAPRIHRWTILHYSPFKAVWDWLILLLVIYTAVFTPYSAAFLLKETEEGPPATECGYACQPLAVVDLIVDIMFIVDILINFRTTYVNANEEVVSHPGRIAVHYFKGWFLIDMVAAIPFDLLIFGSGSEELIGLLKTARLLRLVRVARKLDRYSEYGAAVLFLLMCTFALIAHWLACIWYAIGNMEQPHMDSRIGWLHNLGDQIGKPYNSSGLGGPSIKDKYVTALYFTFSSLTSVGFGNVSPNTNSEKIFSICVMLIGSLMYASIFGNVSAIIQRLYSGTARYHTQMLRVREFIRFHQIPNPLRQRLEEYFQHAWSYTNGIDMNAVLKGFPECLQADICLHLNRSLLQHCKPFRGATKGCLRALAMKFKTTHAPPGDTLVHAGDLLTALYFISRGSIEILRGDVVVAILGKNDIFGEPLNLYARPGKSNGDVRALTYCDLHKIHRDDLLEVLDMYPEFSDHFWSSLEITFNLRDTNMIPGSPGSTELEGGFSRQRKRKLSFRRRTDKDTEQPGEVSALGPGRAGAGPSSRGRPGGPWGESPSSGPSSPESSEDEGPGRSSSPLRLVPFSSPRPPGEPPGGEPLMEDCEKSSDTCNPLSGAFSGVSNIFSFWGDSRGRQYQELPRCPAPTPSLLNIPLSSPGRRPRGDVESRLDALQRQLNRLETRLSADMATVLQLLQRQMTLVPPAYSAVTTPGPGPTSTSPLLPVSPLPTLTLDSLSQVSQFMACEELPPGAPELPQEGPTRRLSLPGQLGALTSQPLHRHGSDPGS

SMILES	hERG current change (%, negative = inhibition) at 10uM [%]
COc1ccc(CNc2nc3nc(C)cc(C)n3n2)cc1	-0.868
Cc1ccc(C(=O)Nc2cc3c(cc2Cl)OCCCO3)cc1	3.17
O=C(NCCc1ccc(C(F)(F)F)cc1)C1CCC(=O)N(CCCN2CCCC2=O)C1 (stereo not drawn)	13.1
Oc1ccc(Cl)cc1C=Nc1ccc2c3c(cccc13)CC2	9.08
Cc1cc(NC(=O)c2ccc(Br)c(S(=O)(=O)N3CCCC3)c2)no1	0.115
CC1CCC(NC(=O)c2ccc3c(c2)OCO3)CC1 (stereo not drawn)	11.5
CCN(Cc1ccccc1)CC(O)COC(c1ccc(OC)cc1)c1ccc(OC)cc1 (stereo not drawn)	-75.1
COc1ccc2c(c1)C(=NNC(=O)c1ccccn1)c1cc(OC)ccc1-2	8.44
COCCNC(=S)N(CCc1c(C)[nH]c2ccccc12)Cc1ccco1	-16.8
O=C(c1ccccc1)c1nn(-c2ccccc2)c2nnc(Cc3ccccc3)c(=O)n12	-5.58
O=c1cc(CSc2ccc([N+](=O)[O-])cc2)nc2sccn12	-23.3
C=C(C)c1cccc(C(C)(C)NC(=O)N2CCN(c3ccc(OC)cc3)CC2)c1	7.46
COC(=O)C1(Cc2cc(-c3ccc(Cl)cc3)no2)CCN(C(=O)OC(C)(C)C)CC1	-22.8
Fc1ccccc1Sc1ccccc1CNC1=NCCN1.I	-1.38
O=CN1CCN(S(=O)(=O)c2ccc(Cl)c(C(=O)O)c2)CC1	-2.45
O=C(Nc1ccccc1)OCc1cn(-c2ccc(Cl)cc2)nn1	22.3
CCOC(=O)Nc1cc(C(=O)OC)cc(C(=O)OC)c1	8.34
CC(CS(=O)(=O)c1ccc2c(c1)NC(=O)CS2)C(=O)N1CCN(c2cccc(Cl)c2)CC1 (stereo not drawn)	-52.1
CC(C)NS(=O)(=O)c1ccc(NC(=O)C(C)OC(=O)CCC(=O)c2cccs2)cc1 (stereo not drawn)	10.3

SMILES	hERG current change (%, negative = inhibition) at 10uM [%]
O=C(O)c1ccccc1C(=O)NNc1ccc(Cl)cc1	8.27
N#C/C(=C\c1c(N2CCC(C(N)=O)CC2)nc2ccccn2c1=O)C(=O)NCc1ccco1	-15.4
COC(=O)Cn1c(Cc2ccccc2)nc2ccccc21	-4.75
Cc1ccc(S(=O)(=O)NCCN2CCN(S(=O)(=O)c3ccccc3Cl)CC2)cc1	-18
OC1(c2nc3ccccc3[nH]2)CCCCC1	13.8
CCC(C)NS(=O)(=O)c1ccc(OCC(=O)NCc2ccc3c(c2)OCO3)cc1 (stereo not drawn)	-21.5
Cc1ccc2[nH]c(O)c(N=NC(N)=S)c2c1	19.3
Fc1ccc(-n2c(-c3ccco3)nc3nc4ccccc4nc32)cc1	5.91
CCOc1ccc(NC(=O)CC2C(=O)N(c3ccccc3)C(=O)N2Cc2ccco2)cc1 (stereo not drawn)	-9.42
O=C(NCC(=O)N1CCCCCCC1)c1ccc(Br)o1	3.02
CC1CCN(CC(C)OC(=O)c2ccco2)CC1.Cl (stereo not drawn)	16.1
COc1cccc(CNc2nc3nc4c(c(=O)n3[nH]2)CCC4)c1	-8.37
COC(=O)c1[nH]c2c(c1C)C(=O)CC(c1ccc(OC)c(OC)c1)C2 (stereo not drawn)	-0.262
CC(=O)Cc1nsc(NC(=O)c2cc(-c3cccc(C(F)(F)F)c3)oc2C)n1	4.23
CCn1c(=O)c2cc(C(=O)NCCOC)sc2c2ccccc21	-8.05
CCOC(=O)C1(C)NC(c2ccccc2F)C2C(=O)N(c3cccc(C(C)=O)c3)C(=O)C21 (stereo not drawn)	12.3
CSCCC(NC(=O)c1ccco1)C(=O)OC(C)C(=O)NC(=O)NC1CCCCC1 (stereo not drawn)	-6.77
COc1ccc(NC(=O)c2ocnc2C)cc1OC	13
COCCCNC(=S)NC(=O)c1ccccc1	20.5

SMILES	hERG current change (%, negative = inhibition) at 10uM [%]
COc1ccc(C(C)(C)NC(=O)C2CCC(=O)N(C3CCCC3)C2)cc1OC (stereo not drawn)	10.3
COC(=O)CNC(=O)c1ccccc1C	11.2
CCOc1ccc(C(=O)Nc2cc(S(=O)(=O)Nc3ccccc3Cl)ccc2N2CCOCC2)cc1	6.95
O=C1CN(C(=O)COc2ncnc3ccccc23)c2ccccc2N1	0.41
O=C(CCc1nnc(Cc2ccc3c(c2)OCO3)o1)NC(c1ccccn1)C(F)(F)F (stereo not drawn)	17.4
O=C(Cn1c(=O)[nH]c2ccccc2c1=O)Nc1cccnc1	7.83
NC(=O)c1ccc(C(F)(F)F)n(Cc2ccccc2Cl)c1=O	11.9
CCN(C(=S)Nc1ccc(Oc2ccccc2)cc1)c1ccccc1	38
N/C(=N\OC(=O)Cc1cccs1)c1ccc(Br)cc1	-0.762
O=C(O)c1ccccc1COc1ccccc1Cl	12.5
COC(=O)C1=C(C)N(CCCC(=O)O)C(=O)NC1c1cccc2ccccc12 (stereo not drawn)	5.92
COc1cccc(-n2cnc3sc4c(c3c2=O)CCC4)c1	-14
CSc1ccccc1C(=O)NCCc1ccc(S(=O)(=O)N2CCCCC2)cc1	-25.2
Cc1ccc(C2CC(c3ccco3)n3ncnc3N2)cc1 (stereo not drawn)	-9.19
CC(C)C1O/C(=N/C(=O)Nc2ccc(Cl)c(Cl)c2)NC1=O (stereo not drawn)	4.65
NC(=O)c1cc(N=Nc2c(N)[nH]n(-c3c(Cl)cc(Cl)cc3Cl)c2=O)ccc1Cl	13.2
COc1cc(/C=C2\C(=N)N3N=C(S(C)(=O)=O)SC3=NC2=O)ccc1OCCOc1ccc(C)cc1	19.7
CC(C)(CCC(=S)N1CCOCC1)C1CCCCC1	12
Cc1nc2ccccc2cc1C(=O)N/N=C/c1ccccc1[N+](=O)[O-]	-6.56
